# From patent US9433687B2, “Anti-Notch3 antibodies and antibody-drug conjugates” (Pfizer Inc., priority 2012, dated 2016)
# B1: hu28-vc0101: hu28 conjugated to vc0101 linker-payload (conjugate)
# heavy: EVQLVESGGGLVQPGGSLRLSCAASGFTFRDYGMTWVRQAPGKGLEWVAYISSGSNYIYYAEAVKGRFTISRDNAKNSLYLQMNSLRAEDTAVYYCARRGPFVLDAWGQGTLVTVSS[letters of human IgG1 constant region omitted]
# light: DIQMTQSPSSLSASVGDRVTITCKASQSINRYLHWYQQKPGKAPKLLIYNANGLQTGVPSRFSGSGSGTDFTLTISSLQPEDFATYYCLQHNTWPDTFGGGTKVEIKRTVAAPSVFIFPPSDEQLKSGTASVVCLLNNFYPREAKVQWKVDNALQSGNSQESVTEQDSKDSTYSLSSTLTLSKADYEKHKVYACEVTHQGLSSPVTKSFNRGEC
# What was measured:
# HCC2429 lung xenografts = test: HCC2429 lung xenograft model (ADCs); type: in vivo, mouse
# Experimental: Similar in vivo experiments were performed with the HCC2429 lung cancer cell line as described above. To generate xenografts, nude (Nu/Nu) female mice were implanted subcutaneously with 3.5×10^6 HCC2429 cells in 50% Matrigel (BD Biosciences).
# The HCC2429 lung model was also dosed intravenously Q4d×4 with PBS vehicle, rat-human chimeric anti-Notch3 ADCs and control huNeg-8.8 ADCs, at a dose of 5 mg/kg as provided in FIG. 16A.
# [1] = tested on: MDA-MB-468 breast xenografts; test: MDA-MB-468 breast xenograft model; type: in vivo, mouse
# Experimental: Similar in vivo experiments were performed with the MDA-MB-468 breast cancer cell line as described above. MDA-MB-468 cells are classified as a triple-negative breast cancer (TNBC) basal-like subtype since they lack expression of the estrogen receptor, progesterone receptor and human epidermal growth factor receptor 2 (HER2) (Lehmann, B D, et al, J Clin Invest. 2011; 121(7):2750-2767). To generate xenografts, female SCID Hairless Outbred (SHO) mice were orthotopically implanted with 10×10^6 MDA-MB-468 cells containing 50% Matrigel (BD Biosciences) in the mammary fat pad. […] FIGS. 13A and 13B show graphs of the data from Table 23 of anti-Notch3 ADCs with vc0101 linker-payloads compared to control huNeg-8.8 ADCs and PBS vehicle. FIGS. 14A and 14B show graphs of the data from Table 24 of the anti-Notch3 ADCs with vc6780 linker-payloads compared to control huNeg-8.8 ADC and PBS vehicle.
# The MDA-MB-468 breast cancer model was also dosed intravenously Q4d×4 with PBS vehicle, rat-human chimeric anti-Notch3 ADCs and control huNeg-8.8 ADCs, at a dose of 5 mg/kg as provided in FIGS. 16B and 16C.
molecule,measurement,setting,value
B1,tumor volume,"HCC2429 lung xenografts; Day 1, 0.3 mg/kg iv Q4dx4",528 mm^3
same,tumor volume,"HCC2429 lung xenografts; Day 1, 1 mg/kg iv Q4dx4",532 mm^3
same,tumor volume,"HCC2429 lung xenografts; Day 1, 3 mg/kg iv Q4dx4",548 mm^3
same,tumor volume,"HCC2429 lung xenografts; Day 3, 0.3 mg/kg iv Q4dx4",733 mm^3
same,tumor volume,"HCC2429 lung xenografts; Day 3, 1 mg/kg iv Q4dx4",757 mm^3
same,tumor volume,"HCC2429 lung xenografts; Day 3, 3 mg/kg iv Q4dx4",606 mm^3
same,tumor volume,"HCC2429 lung xenografts; Day 6, 0.3 mg/kg iv Q4dx4",1112 mm^3
same,tumor volume,"HCC2429 lung xenografts; Day 6, 1 mg/kg iv Q4dx4",1095 mm^3
same,tumor volume,"HCC2429 lung xenografts; Day 6, 3 mg/kg iv Q4dx4",723 mm^3
same,tumor volume,"HCC2429 lung xenografts; Day 8, 0.3 mg/kg iv Q4dx4",1617 mm^3
same,tumor volume,"HCC2429 lung xenografts; Day 8, 1 mg/kg iv Q4dx4",1324 mm^3
same,tumor volume,"HCC2429 lung xenografts; Day 8, 3 mg/kg iv Q4dx4",696 mm^3
same,tumor volume,"HCC2429 lung xenografts; Day 10, 0.3 mg/kg iv Q4dx4",2027 mm^3
same,tumor volume,"HCC2429 lung xenografts; Day 10, 1 mg/kg iv Q4dx4",1606 mm^3
same,tumor volume,"HCC2429 lung xenografts; Day 10, 3 mg/kg iv Q4dx4",620 mm^3
same,tumor volume,"HCC2429 lung xenografts; Day 13, 0.3 mg/kg iv Q4dx4",2642 mm^3
same,tumor volume,"HCC2429 lung xenografts; Day 13, 1 mg/kg iv Q4dx4",1717 mm^3
same,tumor volume,"HCC2429 lung xenografts; Day 13, 3 mg/kg iv Q4dx4",543 mm^3
same,tumor volume,"HCC2429 lung xenografts; Day 15, 1 mg/kg iv Q4dx4",1865 mm^3
same,tumor volume,"HCC2429 lung xenografts; Day 15, 3 mg/kg iv Q4dx4",512 mm^3
same,tumor volume,"HCC2429 lung xenografts; Day 17, 1 mg/kg iv Q4dx4",2228 mm^3
same,tumor volume,"HCC2429 lung xenografts; Day 17, 3 mg/kg iv Q4dx4",442 mm^3
same,tumor volume,"HCC2429 lung xenografts; Day 20, 3 mg/kg iv Q4dx4",428 mm^3
same,tumor volume,"HCC2429 lung xenografts; Day 23, 3 mg/kg iv Q4dx4",405 mm^3
same,tumor volume,"HCC2429 lung xenografts; Day 27, 3 mg/kg iv Q4dx4",422 mm^3
same,tumor volume,"HCC2429 lung xenografts; Day 30, 3 mg/kg iv Q4dx4",394 mm^3
same,tumor volume,"HCC2429 lung xenografts; Day 34, 3 mg/kg iv Q4dx4",505 mm^3
same,tumor volume,"HCC2429 lung xenografts; Day 37, 3 mg/kg iv Q4dx4",606 mm^3
same,tumor volume,"HCC2429 lung xenografts; Day 41, 3 mg/kg iv Q4dx4",750 mm^3
same,tumor volume,"HCC2429 lung xenografts; Day 45, 3 mg/kg iv Q4dx4",872 mm^3
same,tumor volume,"HCC2429 lung xenografts; Day 49, 3 mg/kg iv Q4dx4",558 mm^3
same,tumor volume,"HCC2429 lung xenografts; Day 52, 3 mg/kg iv Q4dx4",571 mm^3
same,tumor volume,"HCC2429 lung xenografts; Day 56, 3 mg/kg iv Q4dx4",704 mm^3
same,tumor volume,"HCC2429 lung xenografts; Day -1, 0.3 mg/kg iv Q4dx4",246 mm^3
same,tumor volume,"HCC2429 lung xenografts; Day -1, 1 mg/kg iv Q4dx4",246 mm^3
same,tumor volume,"HCC2429 lung xenografts; Day -1, 3 mg/kg iv Q4dx4",245 mm^3
same,tumor volume (mm^3 ± SEM),"[1]; Table 23, 0.3 mg/kg i.v. Q4d×4, DAY 0",336 mm^3
same,tumor volume (mm^3 ± SEM),"[1]; Table 23, 0.3 mg/kg i.v. Q4d×4, DAY 4",403 mm^3
same,tumor volume (mm^3 ± SEM),"[1]; Table 23, 0.3 mg/kg i.v. Q4d×4, DAY 7",395 mm^3
same,tumor volume (mm^3 ± SEM),"[1]; Table 23, 0.3 mg/kg i.v. Q4d×4, DAY 11",412 mm^3
same,tumor volume (mm^3 ± SEM),"[1]; Table 23, 0.3 mg/kg i.v. Q4d×4, DAY 14",488 mm^3
same,tumor volume (mm^3 ± SEM),"[1]; Table 23, 0.3 mg/kg i.v. Q4d×4, DAY 18",497 mm^3
same,tumor volume (mm^3 ± SEM),"[1]; Table 23, 0.3 mg/kg i.v. Q4d×4, DAY 21",509 mm^3
same,tumor volume (mm^3 ± SEM),"[1]; Table 23, 0.3 mg/kg i.v. Q4d×4, DAY 26",590 mm^3
same,tumor volume (mm^3 ± SEM),"[1]; Table 23, 1 mg/kg i.v. Q4d×4, DAY 0",348 mm^3
same,tumor volume (mm^3 ± SEM),"[1]; Table 23, 1 mg/kg i.v. Q4d×4, DAY 4",439 mm^3
same,tumor volume (mm^3 ± SEM),"[1]; Table 23, 1 mg/kg i.v. Q4d×4, DAY 7",415 mm^3
same,tumor volume (mm^3 ± SEM),"[1]; Table 23, 1 mg/kg i.v. Q4d×4, DAY 11",372 mm^3
same,tumor volume (mm^3 ± SEM),"[1]; Table 23, 1 mg/kg i.v. Q4d×4, DAY 14",314 mm^3
same,tumor volume (mm^3 ± SEM),"[1]; Table 23, 1 mg/kg i.v. Q4d×4, DAY 18",261 mm^3
same,tumor volume (mm^3 ± SEM),"[1]; Table 23, 1 mg/kg i.v. Q4d×4, DAY 21",219 mm^3
same,tumor volume (mm^3 ± SEM),"[1]; Table 23, 1 mg/kg i.v. Q4d×4, DAY 26",253 mm^3
same,tumor volume (mm^3 ± SEM),"[1]; Table 23, 1 mg/kg i.v. Q4d×4, DAY 29",238 mm^3
same,tumor volume (mm^3 ± SEM),"[1]; Table 23, 1 mg/kg i.v. Q4d×4, DAY 32",266 mm^3
same,tumor volume (mm^3 ± SEM),"[1]; Table 23, 1 mg/kg i.v. Q4d×4, DAY 35",271 mm^3
same,tumor volume (mm^3 ± SEM),"[1]; Table 23, 1 mg/kg i.v. Q4d×4, DAY 39",310 mm^3
same,tumor volume (mm^3 ± SEM),"[1]; Table 23, 1 mg/kg i.v. Q4d×4, DAY 42",349 mm^3
same,tumor volume (mm^3 ± SEM),"[1]; Table 23, 1 mg/kg i.v. Q4d×4, DAY 47",394 mm^3
same,tumor volume (mm^3 ± SEM),"[1]; Table 23, 1 mg/kg i.v. Q4d×4, DAY 50",377 mm^3
same,tumor volume (mm^3 ± SEM),"[1]; Table 23, 1 mg/kg i.v. Q4d×4, DAY 53",414 mm^3
same,tumor volume (mm^3 ± SEM),"[1]; Table 23, 1 mg/kg i.v. Q4d×4, DAY 56",470 mm^3
same,tumor volume (mm^3 ± SEM),"[1]; Table 23, 1 mg/kg i.v. Q4d×4, DAY 60",532 mm^3
same,tumor volume (mm^3 ± SEM),"[1]; Table 23, 1 mg/kg i.v. Q4d×4, DAY 63",509 mm^3
same,tumor volume (mm^3 ± SEM),"[1]; Table 23, 1 mg/kg i.v. Q4d×4, DAY 67",611 mm^3
same,tumor volume (mm^3 ± SEM),"[1]; Table 23, 3 mg/kg i.v. Q4d×4, DAY 0",347 mm^3
same,tumor volume (mm^3 ± SEM),"[1]; Table 23, 3 mg/kg i.v. Q4d×4, DAY 4",359 mm^3
same,tumor volume (mm^3 ± SEM),"[1]; Table 23, 3 mg/kg i.v. Q4d×4, DAY 7",326 mm^3
same,tumor volume (mm^3 ± SEM),"[1]; Table 23, 3 mg/kg i.v. Q4d×4, DAY 11",227 mm^3
same,tumor volume (mm^3 ± SEM),"[1]; Table 23, 3 mg/kg i.v. Q4d×4, DAY 14",147 mm^3
same,tumor volume (mm^3 ± SEM),"[1]; Table 23, 3 mg/kg i.v. Q4d×4, DAY 18",77 mm^3
same,tumor volume (mm^3 ± SEM),"[1]; Table 23, 3 mg/kg i.v. Q4d×4, DAY 21",16 mm^3
same,tumor volume (mm^3 ± SEM),"[1]; Table 23, 3 mg/kg i.v. Q4d×4, DAY 26",0 mm^3
same,tumor volume (mm^3 ± SEM),"[1]; Table 23, 3 mg/kg i.v. Q4d×4, DAY 29",0 mm^3
same,tumor volume (mm^3 ± SEM),"[1]; Table 23, 3 mg/kg i.v. Q4d×4, DAY 32",0 mm^3
same,tumor volume (mm^3 ± SEM),"[1]; Table 23, 3 mg/kg i.v. Q4d×4, DAY 35",0 mm^3
same,tumor volume (mm^3 ± SEM),"[1]; Table 23, 3 mg/kg i.v. Q4d×4, DAY 39",0 mm^3
same,tumor volume (mm^3 ± SEM),"[1]; Table 23, 3 mg/kg i.v. Q4d×4, DAY 42",0 mm^3
same,tumor volume (mm^3 ± SEM),"[1]; Table 23, 3 mg/kg i.v. Q4d×4, DAY 47",0 mm^3
same,tumor volume (mm^3 ± SEM),"[1]; Table 23, 3 mg/kg i.v. Q4d×4, DAY 50",0 mm^3
same,tumor volume (mm^3 ± SEM),"[1]; Table 23, 3 mg/kg i.v. Q4d×4, DAY 53",0 mm^3
same,tumor volume (mm^3 ± SEM),"[1]; Table 23, 3 mg/kg i.v. Q4d×4, DAY 56",0 mm^3
same,tumor volume (mm^3 ± SEM),"[1]; Table 23, 3 mg/kg i.v. Q4d×4, DAY 60",0 mm^3
same,tumor volume (mm^3 ± SEM),"[1]; Table 23, 3 mg/kg i.v. Q4d×4, DAY 63",0 mm^3
same,tumor volume (mm^3 ± SEM),"[1]; Table 23, 3 mg/kg i.v. Q4d×4, DAY 67",0 mm^3
same,tumor volume (mm^3 ± SEM),"[1]; Table 23, 3 mg/kg i.v. Q4d×4, DAY 70",0 mm^3
same,tumor volume (mm^3 ± SEM),"[1]; Table 23, 3 mg/kg i.v. Q4d×4, DAY 76",0 mm^3
same,tumor volume (mm^3 ± SEM),"[1]; Table 23, 3 mg/kg i.v. Q4d×4, DAY 83",0 mm^3
same,tumor volume (mm^3 ± SEM),"[1]; Table 23, 3 mg/kg i.v. Q4d×4, DAY 90",0 mm^3
same,tumor volume (mm^3 ± SEM),"[1]; Table 23, 3 mg/kg i.v. Q4d×4, DAY 97",0 mm^3
same,tumor volume (mm^3 ± SEM),"[1]; Table 23, 3 mg/kg i.v. Q4d×4, DAY 103",0 mm^3
same,tumor volume (mm^3 ± SEM),"[1]; Table 23, 3 mg/kg i.v. Q4d×4, DAY 110",0 mm^3
same,tumor volume (mm^3 ± SEM),"[1]; Table 23, 3 mg/kg i.v. Q4d×4, DAY 118",0 mm^3
same,tumor volume (mm^3 ± SEM),"[1]; Table 23, 3 mg/kg i.v. Q4d×4, DAY 125",0 mm^3
